Part of at least one peptide drawing is inferred or uncertain, most often the ends. Peptide text beside a SMILES is read from it.
Test system: HLA-A24 type molecule, product of the HLA-A*2402 gene
Experiment: Experiment of binding peptide to HLA-A24 type molecule (C1R-A24 cells, flow cytometry, Kd)
Set-up: species or system human
Conditions: −log Kd value

| Structure (SMILES) | binding experimental value |
| --- | --- |
| CC[C@H](C)[C@H](N)C(=O)N[C@@H](CC(C)C)C(=O)N[C@@H](CCSC)C(=O)N[C@H](C(=O)N[C@@H](Cc1c[nH]cn1)C(=O)N[C@@H](Cc1ccccc1)C(=O)N[C@@H](Cc1ccccc1)C(=O)N[C@@H](CO)C(=O)N[C@H](C(=O)O)[C@@H](C)CC)[C@@H](C)O [SEQ ID NO: 13] (H-ILMTHFFSI-OH) | 7.895 |
| CC[C@H](C)[C@H](NC(=O)[C@H](CO)NC(=O)[C@H](Cc1ccccc1)NC(=O)[C@H](Cc1ccccc1)NC(=O)[C@H](Cc1c[nH]cn1)NC(=O)[C@@H](NC(=O)[C@H](CCSC)NC(=O)[C@@H](N)CC(C)C)[C@@H](C)O)C(=O)N[C@@H](CC(C)C)C(=O)O [SEQ ID NO: 18] (H-LMTHFFSIL-OH) | 5.9169 |
| CC[C@H](C)[C@H](NC(=O)[C@@H](N)C(C)C)C(=O)N[C@@H](CC(C)C)C(=O)N[C@@H](CC(=O)O)C(=O)N[C@@H](CO)C(=O)N[C@@H](Cc1ccccc1)C(=O)N[C@@H](CCC(=O)O)C(=O)N1CCC[C@H]1C(=O)N[C@@H](CC(C)C)C(=O)O [SEQ ID NO: 45] (H-VILDSFEPL-OH) | 5.003 |
| CC(C)C[C@H](NC(=O)[C@H](CC(C)C)NC(=O)[C@@H]1CCCN1C(=O)[C@H](Cc1c[nH]c2ccccc12)NC(=O)[C@@H](NC(=O)CNC(=O)[C@H](Cc1ccc(O)cc1)NC(=O)[C@H](Cc1ccccc1)NC(=O)[C@H](C)N)C(C)C)C(=O)O [SEQ ID NO: 49] (H-AFYGVWPLL-OH) | 7.7344 |
| CC(C)C[C@H](NC(=O)[C@@H]1CCCN1C(=O)[C@H](CCCCN)NC(=O)[C@H](CS)NC(=O)[C@H](C)NC(=O)[C@@H]1CCCN1C(=O)[C@H](C)NC(=O)[C@H](Cc1ccc(O)cc1)NC(=O)[C@@H](N)CCCNC(=N)N)C(=O)O [SEQ ID NO: 71] (H-RYAPACKPL-OH) | 6.758 |
| CC(C)C[C@H](NC(=O)[C@@H](NC(=O)[C@@H](N)[C@@H](C)O)C(C)C)C(=O)N[C@@H](C)C(=O)N[C@@H](CC(=O)O)C(=O)N[C@@H](Cc1ccccc1)C(=O)N[C@@H](CCCCN)C(=O)N[C@H](C(=O)N[C@@H](Cc1c[nH]c2ccccc12)C(=O)O)[C@@H](C)O [SEQ ID NO: 90] (H-TVLADFKTW-OH) | 6.519 |
| CC(C)C[C@H](NC(=O)[C@H](Cc1c[nH]c2ccccc12)NC(=O)[C@@H](NC(=O)[C@H](CCCCN)NC(=O)[C@H](Cc1ccccc1)NC(=O)[C@H](CC(=O)O)NC(=O)[C@H](C)NC(=O)[C@H](CC(C)C)NC(=O)[C@@H](N)C(C)C)[C@@H](C)O)C(=O)O [SEQ ID NO: 112] (H-VLADFKTWL-OH) | 6.634 |

Same assay, conditions: −log Kd value (Kd in molar concentration), HCV D89815 strain (Table 2)

| Structure (SMILES) | BINDING EXPERIMENT DATA |
| --- | --- |
| CC[C@H](C)[C@H](NC(=O)[C@H](CO)NC(=O)[C@H](Cc1ccccc1)NC(=O)[C@H](Cc1ccccc1)NC(=O)[C@H](Cc1c[nH]cn1)NC(=O)[C@@H](NC(=O)[C@H](CCSC)NC(=O)[C@@H](N)CC(C)C)[C@@H](C)O)C(=O)N[C@@H](CC(C)C)C(=O)O [compound 64] (H-LMTHFFSIL-OH) | 5.9169 |
| CC[C@H](C)[C@H](NC(=O)[C@H](Cc1c[nH]c2ccccc12)NC(=O)[C@H](CCC(N)=O)NC(=O)[C@H](Cc1c[nH]cn1)NC(=O)[C@H](CC(C)C)NC(=O)[C@H](CCCNC(=N)N)NC(=O)[C@H](CCCCN)NC(=O)[C@H](CC(C)C)NC(=O)[C@@H](N)CC(C)C)C(=O)O [compound 65] (H-LLKRLHQWI-OH) | 6.857 |
| CSCC[C@H](NC(=O)[C@H](CO)NC(=O)[C@H](Cc1ccc(O)cc1)NC(=O)[C@H](Cc1ccc(O)cc1)NC(=O)[C@H](C)N)C(=O)N[C@H](C(=O)NCC(=O)N[C@@H](CC(N)=O)C(=O)N[C@@H](Cc1c[nH]c2ccccc12)C(=O)O)C(C)C [compound 67] (H-AYYSMVGNW-OH) | 6.47 |
| CC[C@H](C)[C@H](N)C(=O)N[C@@H](CC(C)C)C(=O)N[C@@H](CC(C)C)C(=O)NCC(=O)N1CCC[C@H]1C(=O)N[C@@H](C)C(=O)N[C@@H](CC(=O)O)C(=O)N[C@@H](CO)C(=O)N[C@@H](Cc1ccccc1)C(=O)O [compound 75] (H-ILLGPADSF-OH) | 5.502 |

Same assay, conditions: −log Kd value (Kd in molar concentration), HCV D90208 strain (Table 1)

| Structure (SMILES) | BINDING EXPERIMENT DATA |
| --- | --- |
| CC(C)[C@H](NC(=O)[C@@H](NC(=O)[C@H](CS)NC(=O)[C@@H]1CCCN1C(=O)[C@H](Cc1ccc(O)cc1)NC(=O)[C@H](Cc1c[nH]cn1)NC(=O)[C@@H](N)Cc1c[nH]c2ccccc12)[C@@H](C)O)C(=O)N[C@@H](CC(N)=O)C(=O)N[C@@H](Cc1ccccc1)C(=O)O [compound 8] (H-WHYPCTVNF-OH) | 6.387 |
| CC(C)C[C@H](NC(=O)[C@@H]1CCCN1C(=O)[C@H](Cc1c[nH]c2ccccc12)NC(=O)[C@@H]1CCCN1C(=O)[C@H](Cc1ccc(O)cc1)NC(=O)CNC(=O)[C@@H]1CCCN1C(=O)[C@H](CCC(N)=O)NC(=O)[C@H](C)N)C(=O)O [compound 12] (H-AQPGYPWPL-OH) | 5.364 |
| CC[C@H](C)[C@H](N)C(=O)N[C@@H](CC(C)C)C(=O)N[C@@H](CCSC)C(=O)N[C@H](C(=O)N[C@@H](Cc1c[nH]cn1)C(=O)N[C@@H](Cc1ccccc1)C(=O)N[C@@H](Cc1ccccc1)C(=O)N[C@@H](CO)C(=O)N[C@H](C(=O)O)[C@@H](C)CC)[C@@H](C)O [compound 13] (H-ILMTHFFSI-OH) | 7.895 |
| CC[C@H](C)[C@H](NC(=O)[C@H](CC(C)C)NC(=O)[C@H](C)NC(=O)CNC(=O)[C@@H](NC(=O)[C@H](Cc1c[nH]c2ccccc12)NC(=O)[C@@H](NC(=O)[C@H](Cc1ccc(O)cc1)NC(=O)[C@@H](N)CO)[C@@H](C)O)[C@@H](C)O)C(=O)O [compound 14] (H-SYTWTGALI-OH) | 7.13 |

Same assay, conditions: −log Kd value (Kd in molar concentration), HCV pBRT703′X strain (Table 3)

| Structure (SMILES) | BINDING EXPERIMENT DATA |
| --- | --- |
| CC[C@H](C)[C@H](NC(=O)[C@@H](N)C(C)C)C(=O)N[C@@H](CC(C)C)C(=O)N[C@@H](CC(=O)O)C(=O)N[C@@H](CO)C(=O)N[C@@H](Cc1ccccc1)C(=O)N[C@@H](CCC(=O)O)C(=O)N1CCC[C@H]1C(=O)N[C@@H](CC(C)C)C(=O)O [compound 84] (H-VILDSFEPL-OH) | 5.003 |
| CC[C@H](C)[C@H](NC(=O)CN)C(=O)N[C@@H](CC(C)C)C(=O)N1CCC[C@H]1C(=O)N[C@@H](Cc1ccccc1)C(=O)N[C@@H](Cc1ccccc1)C(=O)N[C@@H](CCSC)C(=O)N[C@@H](Cc1ccccc1)C(=O)N[C@@H](Cc1ccccc1)C(=O)O [compound 86] (H-GILPFFMFF-OH) | 7.696 |
| CC(C)C[C@H](NC(=O)[C@@H]1CCCN1)C(=O)N[C@@H](CC(C)C)C(=O)N[C@@H](CCCNC(=N)N)C(=O)N[C@@H](CC(=O)O)C(=O)N[C@@H](CCC(=O)O)C(=O)N[C@H](C(=O)N[C@H](C(=O)N[C@@H](Cc1ccccc1)C(=O)O)[C@@H](C)O)C(C)C [compound 87] (H-PLLRDEVTF-OH) | 5.089 |
| CC(C)C[C@H](NC(=O)[C@@H](NC(=O)[C@@H](N)[C@@H](C)O)C(C)C)C(=O)N[C@@H](C)C(=O)N[C@@H](CC(=O)O)C(=O)N[C@@H](Cc1ccccc1)C(=O)N[C@@H](CCCCN)C(=O)N[C@H](C(=O)N[C@@H](Cc1c[nH]c2ccccc12)C(=O)O)[C@@H](C)O [compound 90] (H-TVLADFKTW-OH) | 6.519 |
| CC(C)[C@H](NC(=O)[C@@H](NC(=O)[C@H](CS)NC(=O)[C@@H]1CCCN1C(=O)[C@H](Cc1ccc(O)cc1)NC(=O)[C@H](Cc1c[nH]cn1)NC(=O)[C@@H](N)Cc1c[nH]c2ccccc12)[C@@H](C)O)C(=O)N[C@@H](CC(N)=O)C(=O)N[C@@H](Cc1ccccc1)C(=O)O [compound 92] (H-WHYPCTVNF-OH) | 6.387 |

Reference: patent US20110060124A1, “HLA-BINDING PEPTIDES, PRECURSORS THEREOF, DNA FRAGMENTS AND RECOMBINANT VECTORS THAT CODE FOR THOSE PEPTIDE SEQUENCES” (priority 2004, published 2011)
